By % Inhibition is commonly meant the change of the read-out against control, counted positive when it falls.

24 compounds from ChEMBL document CHEMBL4888484, “Replenishing the malaria drug discovery pipeline: Screening and hit evaluation of the MMV Hit Generation Library 1 (HGL1) against asexual blood stage Plasmodium falciparum ,using a nano luciferase reporter read-out” (2022) can be followed below.

Hit rate of the full screen: of about 150,000 compounds, about 540 (0.36%) showed an effect of 50% or more. Some of the results follow.

The assay deals with Plasmodium falciparum. The experiment in a line: Primary screen in NF54 nanoGlo assay, in single point, at 2uM, 72h; a lower Z score goes with more inhibition. The note with it: timepoint 72 hour. Type of assay: functional, Erythrocyte.
Regarding `O=C(C1CC1c1ccc(C(F)(F)F)cc1)N1CCN(C2CS(=O)(=O)CC2O)CC1` (stereo not drawn), the “% Inhibition” value was -9% and the Z score is reported as 1.32.
Turning to `Cc1nc(CC(=O)NCc2cccnc2)cs1`, the “% Inhibition” value is recorded as -8% and the Z score was found to be 1.42.
For `COc1ccc(CC(=O)NC[C@@H](c2ccc(C)o2)N2CCC(C)CC2)cc1`, the “% Inhibition” value is given as -4% and the Z score came to 0.57.
As for `COc1c(NC(=O)CCO[C@@H](C)CC(C)C)c(C)nn1C`, the “% Inhibition” value is -4% and the Z score came to 0.58.
As to `O=c1[nH]c(=O)n(Cc2nc(-c3ccco3)no2)cc1Cl`, the “% Inhibition” value came to 37% and the Z score was -4.92.
Regarding `CC(C)n1cccc1-c1nc([C@H]2CCOC2)no1`, the “% Inhibition” value was -7% and the Z score worked out at 0.93.
On the same counts, the results for `CCn1cccc(NC(=O)N2CCOCC(F)(F)C2)c1=O` are -12% and 1.94.
On the same counts, the results for `CC(C)(C)OC(=O)CCC(=O)NCc1cc(C#N)ccc1F` are -10% and 1.37.
`O=C(Cc1c[nH]c2ccccc12)Nc1ccc(N2CCOCC2)nc1`: the “% Inhibition” value is given as -5% and the Z score was determined as 0.49.
The like results for `Clc1ccc(Cn2cc(CNCCCn3ccnc3)c3ccccc32)c(Cl)c1` were, in that order, 98% and -10.9.
In the case of `Cc1n[nH]cc1CNC(=O)[C@@H](C)C(F)(F)F`, the “% Inhibition” value is -8% and the Z score stood at 0.91.
On the same counts, the results for `CCc1nn(C)c(OC)c1CNC(=O)N[C@@H]1Cc2ccccc2[C@H]1O` are -13% and 1.27.
Take `Cc1cnc(NCc2nc3c(s2)CCC3)s1`: the “% Inhibition” value is -13% and the Z score is 1.51.
For `O=C(NCc1ccccc1CN1CCOCC1)[C@@H]1CCCN1C(=O)c1cccs1`, the “% Inhibition” value stood at 34% and the Z score was -3.89.
On the same counts, the results for `CC(=O)N[C@H](C(=O)Nc1ccc(C)cc1F)C(C)C` are -9% and 1.15.
Regarding `COCCC1(C(=O)O)CCN(c2cc(C(C)C)nc(C(F)(F)F)n2)CC1`, the “% Inhibition” value was found to be 4% and the Z score is given as -0.66.
With `CCCC[C@@]1(C(C)(C)C)NS(=O)(=O)c2ccccc21`, the “% Inhibition” value is reported as -32% and the Z score was found to be 3.74.
For `Cn1nccc1Cn1cc(S(=O)(=O)N2CCCCC2)ccc1=O`, the “% Inhibition” value was -10% and the Z score is given as 1.06.
The like results for `CS(=O)(=O)N(CC(=O)N1CCCCCC1)C1CCCCC1` were, in that order, -3% and 0.37.
As to `OC[C@H]1CCC2(CCOCC2)CN1Cc1nnnn1C1CC1`, the “% Inhibition” value came to 1% and the Z score is recorded as -0.2.
Regarding `O=c1cc(COc2ccc3c(c2)CCC3)nc2ccccn12`, the “% Inhibition” value is -17% and the Z score stood at 2.28.
`Cc1c(C(=O)O)sc2ncnc(N3CCC[C@@]4(C3)OCc3ccccc34)c12`: the “% Inhibition” value is given as -29% and the Z score is reported as 3.07.
As for `CCc1ccc(CN2CCC(CNC(=O)c3occc3C)CC2)nc1`, the “% Inhibition” value is listed as -20% and the Z score was 2.72.
The like results for `C[C@H](NC(=O)C1=NN(C)C(=O)CC1)c1ccc2c(c1)OCCO2` were, in that order, -13% and 1.49.
